Measured values published in article PMC4336329 (PLoS ONE, 2015).
In all, about 310,000 compounds went through this assay and about 14,000 (4.5%) showed an effect of 50% or more. The effect is printed as a negative number. This is one part of the list.

target: human ether-à-go-go-related gene (hERG) potassium channel (human, UniProt Q12809); experiment: primary screen, population patch clamp on CHO cells stably expressing hERG
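Note: peak tail current of the secondary pulse compared with the same well before compound.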

Sequence of human ether-à-go-go-related gene (hERG) potassium channel (Q12809 whole entry, looked up): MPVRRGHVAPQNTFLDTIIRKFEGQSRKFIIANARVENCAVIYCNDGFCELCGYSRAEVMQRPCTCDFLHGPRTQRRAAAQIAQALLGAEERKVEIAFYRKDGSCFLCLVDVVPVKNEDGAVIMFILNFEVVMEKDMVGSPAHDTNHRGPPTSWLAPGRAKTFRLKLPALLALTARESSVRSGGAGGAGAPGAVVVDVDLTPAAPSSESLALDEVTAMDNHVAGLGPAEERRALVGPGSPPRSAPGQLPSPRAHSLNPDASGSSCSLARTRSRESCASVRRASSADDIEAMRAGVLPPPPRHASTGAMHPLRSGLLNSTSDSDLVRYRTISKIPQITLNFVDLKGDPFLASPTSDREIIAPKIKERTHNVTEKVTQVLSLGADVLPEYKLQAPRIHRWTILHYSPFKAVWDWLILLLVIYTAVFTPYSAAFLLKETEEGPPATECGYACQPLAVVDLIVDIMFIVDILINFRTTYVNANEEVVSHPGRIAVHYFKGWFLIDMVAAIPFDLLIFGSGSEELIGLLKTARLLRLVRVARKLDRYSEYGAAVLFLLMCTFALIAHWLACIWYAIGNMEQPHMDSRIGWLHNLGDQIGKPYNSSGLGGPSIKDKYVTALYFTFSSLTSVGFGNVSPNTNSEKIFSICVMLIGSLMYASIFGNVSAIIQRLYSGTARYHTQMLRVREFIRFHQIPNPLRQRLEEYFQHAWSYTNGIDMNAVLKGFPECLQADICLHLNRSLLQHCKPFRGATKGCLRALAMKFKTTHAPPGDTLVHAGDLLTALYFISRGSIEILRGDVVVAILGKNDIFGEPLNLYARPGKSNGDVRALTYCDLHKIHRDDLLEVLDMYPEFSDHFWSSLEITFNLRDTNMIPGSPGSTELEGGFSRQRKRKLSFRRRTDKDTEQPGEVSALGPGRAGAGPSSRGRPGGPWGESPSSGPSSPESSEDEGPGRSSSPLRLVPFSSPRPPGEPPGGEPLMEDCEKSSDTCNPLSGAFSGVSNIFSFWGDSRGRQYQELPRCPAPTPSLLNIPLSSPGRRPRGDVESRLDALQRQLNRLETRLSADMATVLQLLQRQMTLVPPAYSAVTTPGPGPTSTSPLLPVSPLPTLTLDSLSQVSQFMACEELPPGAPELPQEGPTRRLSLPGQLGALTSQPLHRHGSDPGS

| SMILES | hERG current change (%, negative = inhibition) at 10uM |
| --- | --- |
| Cn1c(=O)c2c(ncn2CC(=O)OCC(=O)c2ccc(F)c(F)c2)n(C)c1=O | -25.1% |
| CCN(CC)S(=O)(=O)c1ccc(C(=O)Nc2ccc3c(c2)OCCO3)cc1 | -13.7% |
| COc1ccc2c(CC(=O)OCC(=O)Nc3ccc(S(N)(=O)=O)cc3)coc2c1 | 6.45% |
| CCOc1ccc(OCCCC(=O)NCCc2ccc(OC)cc2)cc1 | 25.8% |
| CCCn1c(=O)c(C(=O)Nc2cccc(C)n2)c(O)c2ccccc21 | 25% |
| CCN(CC)CCCN1C(=O)C(O)=C(C(=O)c2ccc(C)o2)C1c1ccc(C)o1 (centres unmarked) | 19% |
| Nc1ccc(NC(=O)c2ccc(C(=O)Nc3ccc(N)cc3)cc2)cc1 | 6.26% |
| O=C(COC(=O)/C=C/c1cccc(F)c1)Nc1ccccc1 | 16.2% |
| CC(CCc1ccco1)NC(=O)Cn1ncc2c1-c1ccccc1OC2 (centres unmarked) | -1.05% |
| CN(Cc1cccs1)c1nc(-c2cccnc2)nc2ccccc12 | -53.5% |
| Cc1ccc(C)c(NC(=O)CSc2nnc(C)c(=O)n2N)c1 | 6.12% |
| CN1CCN(C(=O)c2cccc(S(=O)(=O)N3CCCC3)c2)CC1.Cl | 16.9% |
| Cc1ccc(-c2nn(CC(=O)NCc3ccccn3)c(=O)c3ccccc23)cc1S(=O)(=O)N(C)C | -49.3% |
| CS(=O)(=O)NCCSc1nnnn1-c1ccccc1 | 13% |
| CCOC(=O)c1nn(-c2ccc(F)cc2)c(=O)cc1OCC(=O)Nc1ccc(F)c(F)c1 | 12% |
| O=C(NNc1ccccc1C(F)(F)F)c1sccc1Br | 5.65% |
| Cc1cccc(NC(=S)N(Cc2cccc(Br)c2)CC2CCC(C(=O)O)CC2)c1 (centres unmarked) | -4.28% |
| C[N+]1(CN2C(=O)C3C4C=CC(C4)C3C2=O)CCCCC1.[I-] (centres unmarked) | 17.4% |
| CC1=CC(=O)CC(C)(C)C1(O)/C=C/C(C)=C/C(=O)O (centres unmarked) | 5.43% |
| Cc1ccc(CS(=O)(=O)c2ncn[nH]2)cc1 | 26.8% |
| CN1CCN(CC(=O)Nc2cccc([N+](=O)[O-])c2)CC1 | 3.24% |
| Cc1cc2cc(C)c(NCCNC(=O)c3cccc(F)c3)nc2cc1C | 9.57% |

| SMILES | hERG current change (%, negative = inhibition) at 10uM |
| --- | --- |
| COc1cccc(Cn2cccc(NC(=O)Nc3cccc(C#N)c3)c2=O)c1 | 6.1% |
| OC[C@H](O)[C@H](O)[C@@H](O)[C@@H](O)[C@@H]1SC(c2ccccc2)=NN1c1ccccc1 | 7.29% |
| CC(C)[C@@H](CO)NC(=O)c1ccc2c3n(nc2c1)-c1ccc(Cl)cc1CO3 | -6.39% |
| S=C(NC1CC1)N1CCN(c2ccc(Cl)cc2)CC1 | 1.76% |
| CC(=O)N[C@@H](Cc1c[nH]c2ccccc12)C(=O)OCC(=O)Nc1ccc(Cl)c(S(=O)(=O)N(C)C)c1 | -8.61% |
| CCOC(=O)C(C(=O)OCC)C1CCS(=O)(=O)C1 (centres unmarked) | 14.4% |
| CC1CC(C)CN(C(=O)C2CCCN(S(=O)(=O)c3cccc4nonc34)C2)C1 (centres unmarked) | -36.4% |
| N#Cc1nc(-c2ccc(OCc3ccccc3)cc2)oc1NCCCN1CCOCC1 | 1.35% |
| O=C1c2ccccc2C(=O)N1CCCCSc1nnnn1-c1ccccc1 | -51.7% |
| O=C(O)c1ccc(N/N=C/c2cccc(C(F)(F)F)c2)cc1 | 27.3% |
| COCCN(C(=O)COC(=O)c1cc2ccccc2cc1O)c1c(N)n(Cc2ccccc2)c(=O)[nH]c1=O | -17.6% |
| Cl.Oc1ccc(C2NCc3ccccc3-n3cccc32)cc1Cl (centres unmarked) | -10.9% |
| Cc1cccc(C(=O)Nc2ccccc2C(=O)Nc2ccc(C(=O)O)cc2)c1 | 22.1% |
| CCOC(=O)N1CCN(c2nnnn2-c2ccccc2)CC1 | -0.913% |
| CCN(C(=O)COC(=O)c1cccc(NS(=O)(=O)c2ccc(F)c(F)c2)c1)C1CCS(=O)(=O)C1 (centres unmarked) | 18.5% |
| COC(=O)c1ccccc1NC(=O)c1ccc2c(c1)C(=O)N(Cc1ccco1)C2=O | -1.27% |
| Cc1cc(OCC(=O)N[C@@H](Cc2c[nH]c3ccccc23)C(=O)O)c2c(C)c(C)c(=O)oc2c1 | -4.7% |
| COc1cc(OC)cc(-c2nnc(SCC(=O)Nc3ccc(C(=O)O)cc3)s2)c1 | 27.6% |
| CCn1nccc1C(=O)Nc1cc(Cl)ccc1Cl | 3.21% |
| Clc1ccc(-c2c[n+](Cc3ccc(Br)cc3)c3n2CCCCC3)cc1.[Br-] | -66.4% |
| CCCc1nc(-c2cc3ccc(C)cc3[nH]c2=O)no1 | -16.3% |
| CCC1CCCCN1CCCNC(=O)CCC(=O)N1CC(C)Oc2ccccc21 (centres unmarked) | -5.13% |

| SMILES | hERG current change (%, negative = inhibition) at 10uM |
| --- | --- |
| COC(=O)C1=C(C)N(C(C)c2ccccc2)C(=O)/C1=C\c1ccco1 (centres unmarked) | 26.3% |
| CC(C(=O)Oc1ccc2c(c1)OCO2)N1C(=O)c2ccccc2C1=O (centres unmarked) | -23.1% |
| COc1ccc(CCNC(=O)C(=O)c2c(C)[nH]c3ccccc23)cc1 | 6.09% |
| CC(=O)C1C(c2ccccc2)c2c(noc2C)CC1(C)O (centres unmarked) | 5.78% |
| O=C(c1cccs1)c1ccc(-c2cccs2)s1 | 1.57% |
| CCC(C)(C(=O)Nc1ccccc1C)N(C(=O)CNC(C)=O)c1ccc(C)cc1 (centres unmarked) | 14.8% |
| O=C(CCS(=O)(=O)c1ccc(F)cc1)Nc1nc(-c2ccncc2)cs1 | -8.06% |
| O=c1[nH]nc(SCc2nnc(-c3ccc([N+](=O)[O-])cc3)o2)n1C1CCCCC1 | -27.4% |
| COc1cc2c(cc1NCc1ccc3c(c1)OCO3)oc1ccccc12 | 18.5% |
| Cc1cc(-c2csc(N)n2)c(C)n1CCc1ccccc1.Cl | -12.4% |
| CCCCc1nc(S(=O)(=O)c2ccc(Cl)cc2)c(N2CCOCC2)o1 | -69.6% |
| CCOC(=O)CC(NC(=O)Cn1nnc(-c2ccccc2C)n1)c1ccc(OC)cc1 (centres unmarked) | -11.3% |
| O=C(N/N=C/c1ccccn1)c1ccc([N+](=O)[O-])cc1Cl | 7.03% |
| Cc1ccc(C)c(S(=O)(=O)N2CCCOC2CNC(=O)C(=O)NCc2ccc3c(c2)OCO3)c1 (centres unmarked) | -18.1% |
| Cc1ccc(NC(=O)NC(=O)COc2ccc(Cl)cc2Cl)c(C)c1 | -0.327% |
| CC(C)(C)c1ccc(C(=O)NC(CC(=O)O)c2ccc(OC3CCCC3)cc2)cc1 (centres unmarked) | 8.76% |
| CC12CCC3C(CC=C4CC5(CCC43C)OCCO5)C1CCC2=O (centres unmarked) | -1.11% |
| O=c1cc(CSc2ccccn2)c2ccccc2[nH]1 | 9.52% |
| CCOC(=O)c1cnn(-c2nc(-c3ccccc3)cs2)c1C(F)(F)F | 0.992% |
| O=C(NC1CC1)c1ccc(N2CCCCC2)c([N+](=O)[O-])c1 | -48.3% |
| Nc1nc(SCc2nc3scc(-c4ccccc4)c3c(=O)[nH]2)n[nH]1 | 9.79% |
| Cc1ccc2c(c1)C(=O)C(=O)N2CCCOc1ccccc1 | -16.9% |

| SMILES | hERG current change (%, negative = inhibition) at 10uM |
| --- | --- |
| O=C(COc1ccccc1)Nc1ccc(S(=O)(=O)N2CCOCC2)cc1 | 16.2% |
| CC1CCN(C(=O)c2ccc3c(c2)OCCO3)CC1 | 7.51% |
| Nc1cc(=O)n(Cc2ccccc2)c(=O)n1-c1ccc(F)cc1 | 8.88% |
| Cc1ccc(S(=O)(=O)Nc2cc(C(=O)N3CCOCC3)ccc2N2CCCCC2)cc1 | -20.5% |
| Cc1oc(-c2ccccc2)nc1C(=O)OCC(=O)NC(C)c1ccccc1 (centres unmarked) | -27.7% |
| Oc1c(C(c2ccco2)N2CCOCC2)sc2ncnn12 (centres unmarked) | 7.54% |
| Cc1ccc2[nH]c(CNC(=O)c3ccccc3F)cc2c1 | -9.38% |
| CC(C)(C)OC(=O)N1CCN(C(=O)c2[nH]cnc2C(=O)Nc2cccc(Cl)c2)CC1 | 9.56% |
| O=C(NNC1OC(CO)C(O)C(O)C1O)c1cccnc1 (centres unmarked) | 29.5% |
| O=C(N/N=C/c1cccs1)C(=O)N1CCCC1 | 13.8% |
| Cc1ccc(-c2noc(C3CCCN(S(=O)(=O)c4ccc5ccccc5c4)C3)n2)o1 (centres unmarked) | 4.15% |
| CCCN(CC(=O)Nc1ccccc1C)C(=O)C1CC(=O)N(c2cccc(C)c2C)C1 (centres unmarked) | -3.81% |
| O=C(NCCS(=O)(=O)N1CCN(c2ccccc2F)CC1)c1cccs1 | -6.66% |
| Clc1ccc(C2CC(c3ccccc3)Nc3ncnn32)cc1 (centres unmarked) | -64.4% |
| Clc1ccsc1-c1ccc2ccccc2n1 | 19.7% |
| OCCC1CN(Cc2ccc3nsnc3c2)CCN1C1CCCCC1 (centres unmarked) | -44.6% |
| O=C(COC(=O)c1ccco1)Nc1nc2ccc([N+](=O)[O-])cc2s1 | -17.6% |
| CN(c1ccccc1)c1nc(N)c([N+](=O)[O-])c(NCc2ccccc2)n1 | 17.6% |
| O=C(NC1CCN(S(=O)(=O)c2ccccc2F)CC1)c1cccnc1 | 12.6% |
| COc1ccc(C(=O)NCCc2c[nH]c3ccccc23)cc1[N+](=O)[O-] | -23.1% |
